Test results taken from the supplement of paper PMC10126150.
Sequences with one replicate were seen in a single cluster, so their values are uncertain.

Tested on: ATP
Assay: switch fluorescence ratio, 500 uM ATP over buffer (Cy3 cluster intensity, sum of 5 cycles each) (fold (ratio)); higher = stronger signal-on switching upon ATP binding; sequences stand for … in TCGTCGGCAGCGTCAGATGTGTATAAGAGACAGTTTTTTTTTTTTTTTTTTTTTTTTT…TC
Conditions: aptamer strand: ATP DNA aptamer (quencher-CACCTGGGGGAGTATTGCGGAGGAAGG + anchor), 100 nM annealed; ATP concentration: 500 uM; one replicate
In short: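 Imaging in selection buffer was followed by imaging after 15 min with 500 uM ATP at 22 °C, for Cy3-labelled switching-strand clusters annealed to 100 nM quencher-labelled ATP aptamer on a modified Illumina MiSeq flow-cell. Five of these buffer/ATP cycles ran, separated by NaOH stripping and re-annealing. The fluorescence ratio per cluster is summed target-cycle over summed buffer-cycle Cy3 intensity, averaged per switch-domain sequence; clusters outside 100-1000 RFU were removed.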
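Note: ATP exposure 15 min at 22 °C before imaging.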

Q: Which switch fluorescence ratio does the source give for GGCGCTCTAT here?
A: 0.976

Q: How did the switch fluorescence ratio turn out when GGCGCTTGTC was run?
A: 1.06

Q: How did the switch fluorescence ratio turn out when GGCGGCACTG was run?
A: 1.01

Q: For GGCGGCATGA, which switch fluorescence ratio is on record?
A: 0.971

Q: For GGCGGCTGAA, which switch fluorescence ratio is on record?
A: 1.01

Q: With GGCGGGCACG as the sequence, how does the switch fluorescence ratio read?
A: 0.972

Q: How did the switch fluorescence ratio turn out when GGCGGGGTTA was run?
A: 1.03

Q: How did the switch fluorescence ratio turn out when GGCGGTTTTC was run?
A: 1

Q: For GGCGTACAAC, which switch fluorescence ratio is on record?
A: 1

Q: How did the switch fluorescence ratio turn out when GGCGTATTTT was run?
A: 0.977

Q: GGCGTCCTAC was tested. Which switch fluorescence ratio did it give?
A: 0.998

Q: How did the switch fluorescence ratio turn out when GGCGTCTGGC was run?
A: 0.974

Q: Which switch fluorescence ratio does the source give for GGCGTGCGCG here?
A: 0.985

Q: GGCGTGTCAT was tested. Which switch fluorescence ratio did it give?
A: 0.936

Q: For GGCGTTAGGA, which switch fluorescence ratio is on record?
A: 0.975

Q: Which switch fluorescence ratio does the source give for GGCGTTCAGT here?
A: 0.988

Q: For GGCTACGGTG, which switch fluorescence ratio is on record?
A: 1.03

Q: How did the switch fluorescence ratio turn out when GGCTACTACG was run?
A: 1.04

Q: Which switch fluorescence ratio does the source give for GGCTAGCTAT here?
A: 1.03

Q: For GGCTATACTT, which switch fluorescence ratio is on record?
A: 1.25

Q: Which switch fluorescence ratio does the source give for GGCTATCAGA here?
A: 0.955

Q: How did the switch fluorescence ratio turn out when GGCTCAAGCA was run?
A: 0.926

Q: How did the switch fluorescence ratio turn out when GGCTCAGAGC was run?
A: 1.01

Q: With GGCTCCGCCT as the sequence, how does the switch fluorescence ratio read?
A: 1.09

Q: GGCTCGCGTA was tested. Which switch fluorescence ratio did it give?
A: 1.17

Q: With GGCTCTAATT as the sequence, how does the switch fluorescence ratio read?
A: 1.02

Q: For GGCTCTCGCC, which switch fluorescence ratio is on record?
A: 0.952

Q: Which switch fluorescence ratio does the source give for GGCTCTGGGT here?
A: 0.983

Q: GGCTCTGGTC was tested. Which switch fluorescence ratio did it give?
A: 1

Q: How did the switch fluorescence ratio turn out when GGCTCTTTCA was run?
A: 0.974

Q: GGCTGATTTT was tested. Which switch fluorescence ratio did it give?
A: 1.01

Q: GGCTGCAGGG was tested. Which switch fluorescence ratio did it give?
A: 0.956

Q: For GGCTGCGTCG, which switch fluorescence ratio is on record?
A: 1.02

Q: GGCTGGCTAG was tested. Which switch fluorescence ratio did it give?
A: 0.968

Q: GGCTGTAAGC was tested. Which switch fluorescence ratio did it give?
A: 1.03

Q: For GGCTGTCCGT, which switch fluorescence ratio is on record?
A: 1.02

Q: How did the switch fluorescence ratio turn out when GGCTGTGGTT was run?
A: 0.986

Q: For GGCTTCACGC, which switch fluorescence ratio is on record?
A: 1.06

Q: GGCTTCGAAT was tested. Which switch fluorescence ratio did it give?
A: 0.966

Q: How did the switch fluorescence ratio turn out when GGCTTGAAGT was run?
A: 1

Q: With GGCTTGAGCA as the sequence, how does the switch fluorescence ratio read?
A: 1

Q: Which switch fluorescence ratio does the source give for GGCTTTATT here?
A: 0.968

Q: With GGCTTTGA as the sequence, how does the switch fluorescence ratio read?
A: 0.977

Q: How did the switch fluorescence ratio turn out when GGCTTTTGG was run?
A: 0.944

Q: Which switch fluorescence ratio does the source give for GGCTTTTTCC here?
A: 1.15

Q: With GGGAAAACGA as the sequence, how does the switch fluorescence ratio read?
A: 1.01

Q: With GGGAAAAGAC as the sequence, how does the switch fluorescence ratio read?
A: 1.07

Q: GGGAAACATT was tested. Which switch fluorescence ratio did it give?
A: 0.978

Q: How did the switch fluorescence ratio turn out when GGGAAACCTT was run?
A: 1.66

Q: For GGGAAAGCAA, which switch fluorescence ratio is on record?
A: 1.31

Q: For GGGAAAGCCC, which switch fluorescence ratio is on record?
A: 1.01

Q: How did the switch fluorescence ratio turn out when GGGAAATCCA was run?
A: 1.01

Q: With GGGAAATTTA as the sequence, how does the switch fluorescence ratio read?
A: 1

Q: GGGAAGAAAC was tested. Which switch fluorescence ratio did it give?
A: 0.999

Q: Which switch fluorescence ratio does the source give for GGGAAGACTG here?
A: 1.01

Q: For GGGAAGCACT, which switch fluorescence ratio is on record?
A: 1.03

Q: How did the switch fluorescence ratio turn out when GGGAATTGCG was run?
A: 1.01

Q: How did the switch fluorescence ratio turn out when GGGACAGAGT was run?
A: 0.992

Q: For GGGACAGTGT, which switch fluorescence ratio is on record?
A: 1.01

Q: For GGGACATTT, which switch fluorescence ratio is on record?
A: 1.03

Q: With GGGACCTGGA as the sequence, how does the switch fluorescence ratio read?
A: 1.04

Q: How did the switch fluorescence ratio turn out when GGGACGTACA was run?
A: 1.68

Q: Which switch fluorescence ratio does the source give for GGGACGTCAC here?
A: 1.17

Q: For GGGACGTT, which switch fluorescence ratio is on record?
A: 1.03

Q: For GGGACTCCTA, which switch fluorescence ratio is on record?
A: 0.973

Q: GGGACTCTG was tested. Which switch fluorescence ratio did it give?
A: 0.998

Q: Which switch fluorescence ratio does the source give for GGGACTGCA here?
A: 1.03

Q: For GGGAGATTTC, which switch fluorescence ratio is on record?
A: 0.951

Q: GGGAGCAGTT was tested. Which switch fluorescence ratio did it give?
A: 1.04

Q: With GGGAGGACGG as the sequence, how does the switch fluorescence ratio read?
A: 1.02

Q: Which switch fluorescence ratio does the source give for GGGAGGGCTC here?
A: 0.988

Q: With GGGAGTCGTC as the sequence, how does the switch fluorescence ratio read?
A: 1

Q: GGGAGTGACA was tested. Which switch fluorescence ratio did it give?
A: 0.995

Q: GGGAGTGTTC was tested. Which switch fluorescence ratio did it give?
A: 1.01

Q: With GGGAGTTTGC as the sequence, how does the switch fluorescence ratio read?
A: 0.969

Q: With GGGATAAATG as the sequence, how does the switch fluorescence ratio read?
A: 0.979

Q: For GGGATAGTTG, which switch fluorescence ratio is on record?
A: 0.97

Q: How did the switch fluorescence ratio turn out when GGGATATAAG was run?
A: 0.994

Q: With GGGATCTCCT as the sequence, how does the switch fluorescence ratio read?
A: 0.975

Q: How did the switch fluorescence ratio turn out when GGGATGAGAC was run?
A: 1.05

Q: Which switch fluorescence ratio does the source give for GGGATGCAT here?
A: 1.01

Q: For GGGATGCGGG, which switch fluorescence ratio is on record?
A: 0.961

Q: GGGATGTAG was tested. Which switch fluorescence ratio did it give?
A: 1

Q: With GGGATTAAAC as the sequence, how does the switch fluorescence ratio read?
A: 1.06

Q: GGGATTAGCT was tested. Which switch fluorescence ratio did it give?
A: 1
